According to the supplement of paper PMC11417369:
The list shows a part of the results.

What follows are sequences tested on PfSIP2 AP2 domain 1 (GST-tagged) (assay: gcPBM binding intensity (ln(normalized median fluorescence intensity)); higher = stronger DNA binding).
Procedure, shortened: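 After 1 h on an Agilent 4 × 180k array of primer-extended double-stranded 36-bp intergenic genomic probes and negative controls, bound GST-tagged P. falciparum DNA-binding domains were detected with Alexa488 anti-GST antibody and scanned at 488 nm. The domains had been expressed in E. coli, and binding took place in 1× PBS with 1% milk, 0.2 mg/ml BSA, 0.5% salmon testes DNA and 0.03% Triton X-100. Binding intensity is the highest Masliner-normalised natural-log median intensity across replicate spots of either probe orientation.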

Row | Sequence | gcPBM binding intensity (ln)
1 | AAATAAATACTAGGCACACACACATATATATATATA [CACACA_site2079] | 9.16
2 | ATTATTGTAATATTAGCACACATTACCTCACTACAA [CACACA_site2560] | 7.11
3 | ATATATATATATATATGTACGTATAATATATATATG [XGTACX_site2212] | 9.34
4 | ATTATTCAGGTAAAGTGTACAGGAGAAAAATAAAAT [XGTACX_site334] | 7.24
5 | CGCACCCAAATATATACACACATATATATATATATA [CACACA_site1651] | 9.54
6 | GGAAAATGAAAACAAGGTACACATAAGAACAAACAA [XGTACX_site1221] | 7.37
7 | AATAGGGTCATTCAAAAAAAAAAAAAATAATAATAC [CACACA_negctrl_site644] | 7.16
8 | AAATCACATAAAAATAGTACTTTTTTTTTTTTTTTT [XGTACX_site2696] | 7.47
9 | TGTTTTTATCCTTATGGTACAGTATAATACTTACAG [XGTACX_site6381] | 7.29
10 | TAAAAGAAATATACATGTACATAAATATATATATAT [XGTACX_site1276] | 9.1
11 | GCCCAACCAAAATATACACACAGTTGAATGAATAAA [CACACA_site2597] | 7.26
12 | TATATTTGGAAATATTCTCAATTGGTACAAATAAAA [CACACA_negctrl_site1202] | 7.06
13 | TTGGTAATAATTTGAGGTACACTGTATAAATTTTTT [XGTACX_site909] | 6.99
14 | ATTTTTTTGTGTTTGGTACACACGTTATAAAAAATA [CACACA_site1345] | 7.19
15 | TTTTTTTCTTAAAGATGTACTTTTTTAAAATAATCT [XGTACX_site3663] | 6.87
16 | AATAATAAATTATGGTGTACGCATTTGTATATATAC [XGTACX_site5417] | 7.47
17 | AAAAAAATAAAATTATATAAAATAAATTTTTATAAT [GTGCAC_negctrl_site587] | 6.65
18 | TTTTGGATCATTTGTTGTACATATGCAAAAAAAAAA [XGTACX_site3157] | 7.1
19 | GGAAAATACATTCCAGTGCATTAATTTATTCAACGT | 8.59
20 | TATGATACATAATATACATGCATACACAACATTCAG [TGCATGCA_site487] | 6.99
21 | GATATGTGACGTTTGGTATTTTTGATGTTGGTAGGA [CACACA_negctrl_site1448] | 7.16
22 | AATTCTTTTTTCAACACACACACACTAGAAAATATA [CACACA_site5681] | 7.29
23 | TAAATACAGAAACACACACACAAATATATACATACA [CACACA_site2880] | 7.01
24 | TTTATATATTATTAATGTACAAAATTTTTATTGCAT [XGTACX_site3329] | 6.96
25 | ACATTAAGACACATTGCACACGTGCACCCATAGAAA [CACACA_site8029] | 12
